# The list shows a part of the results. Most values come without repeats; read them as rough.
# Columns and labels:
# Test in all cases: cell count relative to DMSO control; melanoma cells; higher = more viable cells
# MeWo = conditions: library dose: low library concentration; 72 h
# RPMI7951 = conditions: library dose: low library concentration; 72 h
# RVH-421 = conditions: library dose: low library concentration; 72 h
# SkMel28 = conditions: library dose: low library concentration; 72 h
# SkMel30 = conditions: library dose: low library concentration; 72 h
# SkMel5 = conditions: library dose: low library concentration; 72 h
# UACC257 = conditions: library dose: low library concentration; 72 h
# UACC62 = conditions: library dose: low library concentration; 72 h
# WM115 = conditions: library dose: low library concentration; 72 h
# WM1716 = conditions: library dose: low library concentration; 72 h
# WM1745 = conditions: library dose: low library concentration; 72 h
# WM3526 = conditions: library dose: low library concentration; 72 h
# WM3619 = conditions: library dose: low library concentration; 72 h
# WM451Lu = conditions: library dose: low library concentration; 72 h
# MZ2-MEL = conditions: library dose: low library concentration; 72 h
# A101D = conditions: library dose: standard library concentration; 72 h
# A2058 = conditions: library dose: standard library concentration; 72 h
# A375 = conditions: library dose: standard library concentration; 72 h
# 501Mel = conditions: library dose: standard library concentration; 72 h
compound,measurement,setting,value
"Cc1cc(Nc2cc(N3CCN(C)CC3)nc(Sc3ccc(NC(=O)C4CC4)cc3)n2)n[nH]1 [Tozasertib] + Cc1cc(SCc2sc(-c3ccc(C(F)(F)F)c(F)c3)nc2C)ccc1OCC(=O)O [GW0742] (first compound 0.006 µM, partner dose 2 µM)",cell count,MeWo,94.7%
same,cell count,RPMI7951,105%
same,cell count,RVH-421,108%
same,cell count,SkMel28,73.8%
same,cell count,SkMel30,88.6%
same,cell count,SkMel5,103%
same,cell count,UACC257,90.2%
same,cell count,UACC62,83.6%
same,cell count,WM115,88.7%
same,cell count,WM1716,92.7%
same,cell count,WM1745,75.1%
same,cell count,WM3526,93.4%
same,cell count,WM3619,78.9%
same,cell count,WM451Lu,117%
"O=C(CCCCCCC(=O)Nc1ccccc1)NO [vorinostat] + C/C(O)=C(\C#N)C(=O)Nc1cc(Br)ccc1Br [LFM-A13] (first compound 0.08 µM, partner dose 2 µM)",cell count,MZ2-MEL,94%
same,cell count,MeWo,93.6%
same,cell count,RPMI7951,102%
same,cell count,RVH-421,108%
same,cell count,SkMel28,85.5%
same,cell count,SkMel30,102%
same,cell count,SkMel5,95.3%
same,cell count,UACC257,98.3%
same,cell count,UACC62,75.5%
same,cell count,WM115,97.7%
same,cell count,WM1716,109%
same,cell count,WM1745,99.3%
same,cell count,WM3526,100%
same,cell count,WM3619,81.9%
same,cell count,WM451Lu,95.2%
"COCC[n+]1c2c(n(Cc3cnccn3)c1C)C(=O)c1ccccc1C2=O + C/C(O)=C(\C#N)C(=O)Nc1cc(Br)ccc1Br [LFM-A13] (first compound 0.0004 µM, partner dose 2 µM)",cell count,MZ2-MEL,68.8%
same,cell count,MeWo,84.6%
same,cell count,RPMI7951,103%
same,cell count,RVH-421,95.5%
same,cell count,SkMel28,79.8%
same,cell count,SkMel30,98.7%
same,cell count,SkMel5,86.5%
same,cell count,UACC257,106%
same,cell count,UACC62,79.6%
same,cell count,WM115,99.7%
same,cell count,WM1716,97.8%
same,cell count,WM1745,91.9%
same,cell count,WM3526,108%
same,cell count,WM3619,125%
same,cell count,WM451Lu,92%
"Cn1c(Nc2ccc(C(F)(F)F)cc2)nc2cc(Oc3ccnc(-c4ncc(C(F)(F)F)[nH]4)c3)ccc21 + O=C(Oc1ccc([N+](=O)[O-])cc1)N1CCC(C(O)(c2ccc3c(c2)OCO3)c2ccc3c(c2)OCO3)CC1 [JZL184] (first compound 0.08 µM, partner dose 1 µM)",cell count,MeWo,68.9%
same,cell count,RPMI7951,62.7%
same,cell count,RVH-421,69.2%
same,cell count,SkMel28,57.2%
same,cell count,SkMel30,52.8%
same,cell count,SkMel5,69.7%
same,cell count,UACC257,37.3%
same,cell count,UACC62,50.7%
same,cell count,WM115,51.5%
same,cell count,WM1716,73.4%
same,cell count,WM1745,75.9%
same,cell count,WM3526,33%
same,cell count,WM3619,56.2%
same,cell count,WM451Lu,75.6%
"C[C@@H]1CCN(C(=O)CC#N)C[C@@H]1N(C)c1ncnc2[nH]ccc12 + Cc1cc(SCc2sc(-c3ccc(C(F)(F)F)c(F)c3)nc2C)ccc1OCC(=O)O [GW0742] (first compound 1 µM, partner dose 2 µM)",cell count,MZ2-MEL,103%
same,cell count,MeWo,98.3%
same,cell count,RPMI7951,100%
same,cell count,RVH-421,98%
same,cell count,SkMel28,104%
same,cell count,SkMel30,106%
same,cell count,SkMel5,109%
same,cell count,UACC257,128%
same,cell count,UACC62,91.3%
same,cell count,WM115,102%
same,cell count,WM1716,101%
same,cell count,WM1745,100%
same,cell count,WM3526,133%
same,cell count,WM3619,108%
same,cell count,WM451Lu,116%
"CO[C@H]1C[C@@H]2CC[C@@H](C)[C@@](O)(O2)C(=O)C(=O)N2CCCC[C@H]2C(=O)O[C@H]([C@H](C)C[C@@H]2CC[C@@H](OCCO)[C@H](OC)C2)CC(=O)[C@H](C)/C=C(\C)[C@@H](O)[C@@H](OC)C(=O)[C@H](C)C[C@H](C)/C=C/C=C/C=C/1C [everolimus] + Cc1cc(SCc2sc(-c3ccc(C(F)(F)F)c(F)c3)nc2C)ccc1OCC(=O)O [GW0742] (first compound 0.02 µM, partner dose 2 µM)",cell count,MZ2-MEL,99.6%
same,cell count,MeWo,88.8%
same,cell count,RPMI7951,91.9%
same,cell count,RVH-421,119%
same,cell count,SkMel28,101%
same,cell count,SkMel30,90.3%
same,cell count,SkMel5,99%
same,cell count,UACC257,106%
same,cell count,UACC62,113%
same,cell count,WM115,89.6%
same,cell count,WM1716,107%
same,cell count,WM1745,92.3%
same,cell count,WM3526,102%
same,cell count,WM3619,113%
same,cell count,WM451Lu,99.5%
"C#Cc1cccc(Nc2ncnc3cc(OCCOC)c(OCCOC)cc23)c1 [erlotinib] + Cc1cc(SCc2sc(-c3ccc(C(F)(F)F)c(F)c3)nc2C)ccc1OCC(=O)O [GW0742] (first compound 4 µM, partner dose 10 µM)",cell count,A101D,72.5%
same,cell count,A2058,90%
same,cell count,A375,118%
"O=C(O)c1ccc2c(c1)nc(Nc1cccc(Cl)c1)c1ccncc12 + O=C(Oc1ccc([N+](=O)[O-])cc1)N1CCC(C(O)(c2ccc3c(c2)OCO3)c2ccc3c(c2)OCO3)CC1 [JZL184] (first compound 2 µM, partner dose 5 µM)",cell count,501Mel,84%
same,cell count,A101D,84%
same,cell count,A2058,80.3%
same,cell count,A375,93.3%
"Oc1nc(-c2ccc(C(F)(F)F)cc2)nc2c1CSCC2 + O=C(Oc1ccc([N+](=O)[O-])cc1)N1CCC(C(O)(c2ccc3c(c2)OCO3)c2ccc3c(c2)OCO3)CC1 [JZL184] (first compound 10 µM, partner dose 5 µM)",cell count,501Mel,65.7%
same,cell count,A101D,81.7%
same,cell count,A2058,88.1%
same,cell count,A375,90.4%
"CC(C)C[C@H](NC(=O)[C@H](Cc1ccccc1)NC(=O)c1cnccn1)B(O)O [Bortezomib] + Cc1cc(SCc2sc(-c3ccc(C(F)(F)F)c(F)c3)nc2C)ccc1OCC(=O)O [GW0742] (first compound 0.005 µM, partner dose 10 µM)",cell count,A101D,18.2%
same,cell count,A2058,12.1%
same,cell count,A375,90%
"Clc1ccc(Nc2nnc(Cc3ccncc3)c3ccccc23)cc1 [vatalanib] + C[As](C)SC[C@H](NC(=O)CC[C@H](N)C(=O)O)C(=O)NCC(=O)O [Darinaparsin] (first compound 10 µM, partner dose 2 µM)",cell count,A101D,78.8%
same,cell count,A2058,73.1%
same,cell count,A375,69.1%
"CC(C)C[C@H](NC(=O)[C@H](Cc1ccccc1)NC(=O)c1cnccn1)B(O)O [Bortezomib] + C[As](C)SC[C@H](NC(=O)CC[C@H](N)C(=O)O)C(=O)NCC(=O)O [Darinaparsin] (first compound 0.005 µM, partner dose 2 µM)",cell count,A101D,12%
same,cell count,A2058,10.7%
same,cell count,A375,64.6%
"O=C(CCCCCCC(=O)Nc1ccccc1)NO [vorinostat] + O=C(Oc1ccc([N+](=O)[O-])cc1)N1CCC(C(O)(c2ccc3c(c2)OCO3)c2ccc3c(c2)OCO3)CC1 [JZL184] (first compound 0.4 µM, partner dose 5 µM)",cell count,A101D,85.3%
same,cell count,A2058,92.2%
same,cell count,A375,119%
"Cc1cc(Nc2cc(N3CCN(C)CC3)nc(Sc3ccc(NC(=O)C4CC4)cc3)n2)n[nH]1 [Tozasertib] + Cn1cc(C2=C(c3cn(C4CCN(Cc5ccccn5)CC4)c4ccccc34)C(=O)NC2=O)c2ccccc21 [Enzastaurin] (first compound 0.03 µM, partner dose 4 µM)",cell count,A101D,85.4%
same,cell count,A2058,88.8%
same,cell count,A375,79.4%
"Cn1c(Nc2ccc(C(F)(F)F)cc2)nc2cc(Oc3ccnc(-c4ncc(C(F)(F)F)[nH]4)c3)ccc21 + O=C(Oc1ccc([N+](=O)[O-])cc1)N1CCC(C(O)(c2ccc3c(c2)OCO3)c2ccc3c(c2)OCO3)CC1 [JZL184] (first compound 0.4 µM, partner dose 5 µM)",cell count,501Mel,33.1%
same,cell count,A101D,68.9%
same,cell count,A2058,73%
same,cell count,A375,70.6%
"Clc1ccc(Nc2nnc(Cc3ccncc3)c3ccccc23)cc1 [vatalanib] + Cc1cc(SCc2sc(-c3ccc(C(F)(F)F)c(F)c3)nc2C)ccc1OCC(=O)O [GW0742] (first compound 10 µM, partner dose 10 µM)",cell count,A101D,78.7%
same,cell count,A2058,92.3%
same,cell count,A375,90.7%
"C#Cc1cccc(Nc2ncnc3cc(OCCOC)c(OCCOC)cc23)c1 [erlotinib] + C[As](C)SC[C@H](NC(=O)CC[C@H](N)C(=O)O)C(=O)NCC(=O)O [Darinaparsin] (first compound 4 µM, partner dose 2 µM)",cell count,A101D,60.2%
same,cell count,A2058,60.8%
same,cell count,A375,96.1%

# Reference: the supplement of paper PMC4604168 (melanoma cell lines)
